# Test results published in the supplement of paper PMC10126150.
# Values marked as one replicate rest on one cluster of the flow cell; about a third of the high ones do not repeat.
# Test system: ATP
# Assay: switch fluorescence ratio, 500 uM ATP over buffer (Cy3 cluster intensity, sum of 5 cycles each) (fold (ratio)); higher = stronger signal-on switching upon ATP binding; sequences stand for … in TCGTCGGCAGCGTCAGATGTGTATAAGAGACAGTTTTTTTTTTTTTTTTTTTTTTTTT…TC
# Conditions: aptamer strand: ATP DNA aptamer (quencher-CACCTGGGGGAGTATTGCGGAGGAAGG + anchor), 100 nM annealed; ATP concentration: 500 uM; one replicate
# Method in brief: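 Imaging in selection buffer was followed by imaging after 15 min with 500 uM ATP at 22 °C, for Cy3-labelled switching-strand clusters annealed to 100 nM quencher-labelled ATP aptamer on a modified Illumina MiSeq flow-cell. Five of these buffer/ATP cycles ran, separated by NaOH stripping and re-annealing. The fluorescence ratio per cluster is summed target-cycle over summed buffer-cycle Cy3 intensity, averaged per switch-domain sequence; clusters outside 100-1000 RFU were removed.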
# 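Further: ATP exposure 15 min at 22 °C before imaging.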
row,Sequence,switch fluorescence ratio
1,AGTACCTAAT,0.994
2,CCTACGGACC,2.45
3,TAAAGTGTTT,1
4,GCCTATATGA,1.02
5,GATGAGATAT,1.03
6,TTCCGAATTT,1.07
7,CGAATGGGAG,1.01
8,TAAGGATCCG,1.17
9,GTGGTGGATT,0.968
10,TTAAATGC,1.04
11,GGAGGTTAGC,1
12,AACTTTGAAT,0.983
13,ACCCCTGAGC,1.09
14,CATGGTAATA,0.975
15,GGCGGGGTTT,0.956
16,TTGTTGAGGT,1.04
17,CGAGAAAATC,1.03
18,TCGTTGTTTG,0.981
19,CGAGGCTGGT,1.05
20,GGATATGCGG,1.12
21,ACGTAATCCG,1.03
22,AGGATATCGG,1.03
23,ATAAATATTT,0.957

row,Sequence,switch fluorescence ratio
1,GAAGTTTCGG,0.993
2,AGCAACTTAG,1.06
3,TTTTCACTAG,1.01
4,CAGATCGCTC,1.34
5,TCTGCCCGAG,0.994
6,ACTTTAACCG,1.15
7,CCTCCCCGG,3.62
8,GATGGGAAAG,0.946
9,AACCGAACGG,1.1
10,TTGCGACTA,0.992
11,GTTTGCCATC,1.04
12,ATCGATGCGT,1.01
13,GGTGACAACT,0.938
14,AAGGCCCGGT,0.987
15,GTATCGACTG,1.01
16,TCCCGATTTT,0.997
17,GCCATCATGT,1.01
18,AAAGAGATGG,0.967
19,AGCGGGTATG,1.06
20,CTAGTCTGGG,0.97
21,ACTTTGCATA,1.61
22,ACGTAGACTA,1.12
23,TGGATATTCA,1.01

row,Sequence,switch fluorescence ratio
1,GATTGTAGAA,1.03
2,AACTCGGTG,0.99
3,ATCCGCCATA,3.11
4,CTTCTACTTA,1.01
5,AATTCACTTT,1.02
6,AACGCCGCAC,3.21
7,TGATGCATGT,0.992
8,GGGGTCCCAC,1.07
9,ACTTGGGTTT,1
10,GGCGCTTGGT,0.998
11,GGGACTCTTT,1
12,CCAAAAGGGA,1.04
13,TACTAGTGGC,1.08
14,ATATACGTAC,1.63
15,TCTTCACCAA,1.19
16,ATCAGAATTT,0.991
17,ACGAAGCAGG,1.59
18,GGAGATTCCT,0.972
19,AGCGGCCTGT,0.972
20,TTAGTGTTAA,0.99
21,TGTCCTACTG,1.21
22,GTTTTAAGC,0.929
23,GAAAACGGAC,1.26

row,Sequence,switch fluorescence ratio
1,ACGGGACTCT,1.26
2,GGTCGTGATG,0.994
3,GAGTTTACCA,1
4,ATGGGCCACC,0.988
5,GTTACCAGAT,1.03
6,CTTATATGTG,0.968
7,ACGGCTCGTC,0.95
8,GAACGTTTAG,1.02
9,ATAGTGTGGG,1.03
10,CATCCTAATT,1.02
11,TGGCACTATT,0.965
12,CGATTGGTT,0.921
13,GAAAGTAGTT,0.969
14,GCCTGAAGGA,0.98
15,ACCCGAGTCG,1
16,GCTTTGTGTT,1.05
17,AGATTGGTTT,0.999
18,GAGAGATGGT,0.971
19,AGGGGTTTCC,0.981
20,CCACTTAGGA,0.993
21,AGACTTTTTT,1.09
22,AAAATCTGG,1
23,TCCATTGGGA,1.02

row,Sequence,switch fluorescence ratio
1,GACCTTCGTT,1.18
2,CGCTGTACGC,1.84
3,AATTTTGAGT,0.981
4,GTTATACTAG,1.02
5,ATTTAAGAT,0.971
6,ATCCTTTGAC,1.08
7,CTATTATCCA,0.982
8,CCCCACCCT,1.03
9,CTATATTGCA,1.01
10,ACCTGGTAAA,1.01
11,ATCGCCGCTT,1.09
12,ACATCTGCTT,1.03
13,TCTGAACGTT,1.05
14,AGAAATGAGA,0.969
15,TAATCTCTTA,1.01
16,GCGAATCGTT,1.03
17,CATACGCGTG,1.04
18,GAGTGGAGAG,0.976
19,AGTATTGGA,1.01
20,CGATGCTTGG,1.03
21,GCTGGAGTAA,1.3
22,TAGAACGAGC,1.07
23,TTGTATGACA,1.01

row,Sequence,switch fluorescence ratio
1,CAGAAGCATT,1.29
2,ACCCAAAACG,1.05
3,GATGCTTAAT,0.954
4,GGGCGTGGGG,1.03
5,AGCGACTCTA,1.02
6,CTACATAGGC,1.07
7,GAATCCAGAG,1.02
8,AAACTACGG,1.05
9,TATCCACACC,1.18
10,CGGGTGTCAG,0.943
11,ACTTGACAAC,1.15
12,ATATTTTTAA,0.983
13,CCGGGAGATC,1.05
14,AGACACTTGG,0.965
15,GTGTCGGGTA,0.981
16,CCCTATACGT,1.31
17,GAAAGAACGG,1.08
18,TGATTAATAC,1.21
19,GAGCTATCGT,1.03
20,AAAGGTGCTG,0.872
21,GAAGCGACGT,1.04
22,ACTGATACGA,1.18
23,CATCAGAGCA,1.04

row,Sequence,switch fluorescence ratio
1,TACTAGCATT,1.05
2,CAGCTCGACG,1.01
3,GGTATAGGCA,0.998
4,CACCCTATGC,1.1
5,CCCGTGCTGA,1.04
6,GACACAACTC,1.26
7,TATTTCCC,1.02
8,CAGGTCGCGA,0.994
9,GTTTGAACGA,0.937
10,GGGACTCGTA,0.965
11,ATCTTCTTTG,1.02
12,GTGCCCGTAT,0.993
13,CATGAGCTGA,0.98
14,CGTCGATGG,0.992
15,CTCCACCAAG,2.16
16,TGAGGTCGTG,0.955
17,ATCTCTTAAC,0.974
18,GTTGATTCGA,0.977
19,GAATGTGTG,0.95
